Reference: the supplement of paper PMC8728848
The list shows a part of the results.

Experiments:
Assay in all cases: glycan array binding signal (z-score within array); higher = stronger binding
Settings in all cases: glycan notation: IUPAC condensed, linker removed
Neu5Ac(a2-3)GalNAc = target: Neu5Ac(a2-3)GalNAc
How it was run: (§1)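 Glycan array binding is given as a within-array Z-score, which can be read as non-binding when negative. The arrays, 3228 of them, came from the Consortium for Functional Glycomics database and were retained only where the protein sequence was available. Z-scores were averaged across arrays of the same protein sequence at different concentrations or buffers and across linkers.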

[1] = target: Neu5Ac(a2-3)GalNAc(b1-4)GlcNAc
How it was run: as §1

[2] = target: Neu5Ac(a2-3)[GalNAc(b1-4)]Gal(b1-4)Glc
How it was run: as §1

[3] = target: Neu5Ac(a2-3)[GalNAc(b1-4)]Gal(b1-4)GlcNAc
How it was run: as §1

[4] = target: Neu5Ac(a2-3)[GalNAc(b1-4)]Gal(b1-4)GlcNAc(b1-3)GalNAc
How it was run: as §1

[5] = target: Neu5Ac(a2-3)[Neu5Ac(a2-6)]GalNAc
How it was run: as §1

Neu5Ac(a2-6)Gal = target: Neu5Ac(a2-6)Gal
How it was run: as §1

[6] = target: Neu5Ac(a2-6)Gal(b1-3)GlcNAc(b1-3)[Gal(b1-4)GlcNAc(b1-6)]Gal(b1-4)Glc
How it was run: as §1

Neu5Ac(a2-6)Gal(b1-4)Glc = target: Neu5Ac(a2-6)Gal(b1-4)Glc
How it was run: as §1

[7] = target: Neu5Ac(a2-6)Gal(b1-4)GlcNAc
How it was run: as §1

[8] = target: Neu5Ac(a2-6)Gal(b1-4)GlcNAc(b1-2)Man
How it was run: as §1

[9] = target: Neu5Ac(a2-6)Gal(b1-4)GlcNAc(b1-2)Man(a1-3)Man(b1-4)GlcNAc(b1-4)GlcNAc
How it was run: as §1

[10] = target: Neu5Ac(a2-6)Gal(b1-4)GlcNAc(b1-2)Man(a1-3)[Gal(b1-4)GlcNAc(b1-2)Man(a1-6)]Man(b1-4)GlcNAc(b1-4)GlcNAc
How it was run: as §1

[11] = target: Neu5Ac(a2-6)Gal(b1-4)GlcNAc(b1-2)Man(a1-3)[GlcNAc(b1-2)Man(a1-6)]Man(b1-4)GlcNAc(b1-4)GlcNAc
How it was run: as §1

[12] = target: Neu5Ac(a2-6)Gal(b1-4)GlcNAc(b1-2)Man(a1-3)[GlcNAc(b1-4)][Neu5Ac(a2-6)Gal(b1-4)GlcNAc(b1-2)Man(a1-6)]Man(b1-4)GlcNAc(b1-4)GlcNAc
How it was run: as §1

[13] = target: Neu5Ac(a2-6)Gal(b1-4)GlcNAc(b1-2)Man(a1-3)[Man(a1-6)]Man(b1-4)GlcNAc(b1-4)GlcNAc
How it was run: as §1

[14] = target: Neu5Ac(a2-6)Gal(b1-4)GlcNAc(b1-2)Man(a1-3)[Neu5Ac(a2-3)Gal(b1-4)GlcNAc(b1-2)Man(a1-6)]Man(b1-4)GlcNAc(b1-4)GlcNAc
How it was run: as §1

[15] = target: Neu5Ac(a2-6)Gal(b1-4)GlcNAc(b1-2)Man(a1-3)[Neu5Ac(a2-6)Gal(b1-4)GlcNAc(b1-2)Man(a1-6)]Man(b1-4)GlcNAc(b1-4)GlcNAc
How it was run: as §1

[16] = target: Neu5Ac(a2-6)Gal(b1-4)GlcNAc(b1-2)Man(a1-3)[Neu5Ac(a2-6)Gal(b1-4)GlcNAc(b1-2)Man(a1-6)]Man(b1-4)GlcNAc(b1-4)[Fuc(a1-6)]GlcNAc
How it was run: as §1

[17] = target: Neu5Ac(a2-6)Gal(b1-4)GlcNAc(b1-2)Man(a1-6)Man(b1-4)GlcNAc(b1-4)GlcNAc
How it was run: as §1

[18] = target: Neu5Ac(a2-6)Gal(b1-4)GlcNAc(b1-2)Man(a1-6)[Gal(b1-4)GlcNAc(b1-2)Man(a1-3)]Man(b1-4)GlcNAc(b1-4)GlcNAc
How it was run: as §1

[19] = target: Neu5Ac(a2-6)Gal(b1-4)GlcNAc(b1-2)Man(a1-6)[GlcNAc(b1-2)Man(a1-3)]Man(b1-4)GlcNAc(b1-4)GlcNAc
How it was run: as §1

[20] = target: Neu5Ac(a2-6)Gal(b1-4)GlcNAc(b1-2)Man(a1-6)[Man(a1-3)]Man(b1-4)GlcNAc(b1-4)GlcNAc
How it was run: as §1

[21] = target: Neu5Ac(a2-6)Gal(b1-4)GlcNAc(b1-2)[Neu5Ac(a2-6)Gal(b1-4)GlcNAc(b1-4)]Man(a1-3)[GlcNAc(b1-4)][Neu5Ac(a2-6)Gal(b1-4)GlcNAc(b1-2)[Neu5Ac(a2-6)Gal(b1-4)GlcNAc(b1-6)]Man(a1-6)]Man(b1-4)GlcNAc(b1-4)GlcNAc
How it was run: as §1

[22] = target: Neu5Ac(a2-6)Gal(b1-4)GlcNAc(b1-2)[Neu5Ac(a2-6)Gal(b1-4)GlcNAc(b1-4)]Man(a1-3)[GlcNAc(b1-4)][Neu5Ac(a2-6)Gal(b1-4)GlcNAc(b1-4)Man(a1-6)]Man(b1-4)GlcNAc(b1-4)GlcNAc
How it was run: as §1

[23] = target: Neu5Ac(a2-6)Gal(b1-4)GlcNAc(b1-2)[Neu5Ac(a2-6)Gal(b1-4)GlcNAc(b1-6)]Man(a1-6)[Neu5Ac(a2-6)Gal(b1-4)GlcNAc(b1-2)Man(a1-3)][GlcNAc(b1-4)]Man(b1-4)GlcNAc(b1-4)GlcNAc
How it was run: as §1

[24] = target: Neu5Ac(a2-6)Gal(b1-4)GlcNAc(b1-3)Gal(b1-3)GlcNAc
How it was run: as §1

[25] = target: Neu5Ac(a2-6)Gal(b1-4)GlcNAc(b1-3)Gal(b1-4)GlcNAc
How it was run: as §1

[26] = target: Neu5Ac(a2-6)Gal(b1-4)GlcNAc(b1-3)Gal(b1-4)GlcNAc(b1-2)Man(a1-3)[Neu5Ac(a2-6)Gal(b1-4)GlcNAc(b1-3)Gal(b1-4)GlcNAc(b1-2)Man(a1-6)]GalNAc
How it was run: as §1

[27] = target: Neu5Ac(a2-6)Gal(b1-4)GlcNAc(b1-3)Gal(b1-4)GlcNAc(b1-3)Gal(b1-4)GlcNAc
How it was run: as §1

[28] = target: Neu5Ac(a2-6)Gal(b1-4)GlcNAc(b1-3)Gal(b1-4)GlcNAc(b1-3)Gal(b1-4)GlcNAc(b1-2)Man(a1-3)[Neu5Ac(a2-6)Gal(b1-4)GlcNAc(b1-3)Gal(b1-4)GlcNAc(b1-3)Gal(b1-4)GlcNAc(b1-2)Man(a1-6)]GalNAc
How it was run: as §1

[29] = target: Neu5Ac(a2-6)Gal(b1-4)GlcNAc(b1-3)Gal(b1-4)GlcNAc(b1-3)GalNAc
How it was run: as §1

[30] = target: Neu5Ac(a2-6)Gal(b1-4)GlcNAc(b1-3)Gal(b1-4)GlcNAc(b1-3)[Neu5Ac(a2-6)Gal(b1-4)GlcNAc(b1-3)Gal(b1-4)GlcNAc(b1-6)]GalNAc
How it was run: as §1

[31] = target: Neu5Ac(a2-6)Gal(b1-4)GlcNAc(b1-3)Gal(b1-4)GlcNAc(b1-6)[Gal(b1-3)]GalNAc
How it was run: as §1

[32] = target: Neu5Ac(a2-6)Gal(b1-4)GlcNAc(b1-3)Gal(b1-4)[Fuc(a1-3)]GlcNAc(b1-3)Gal(b1-4)[Fuc(a1-3)]GlcNAc
How it was run: as §1

[33] = target: Neu5Ac(a2-6)Gal(b1-4)GlcNAc(b1-3)GalNAc
How it was run: as §1

[34] = target: Neu5Ac(a2-6)Gal(b1-4)GlcNAc(b1-3)[Neu5Ac(a2-6)Gal(b1-4)GlcNAc(b1-6)]GalNAc
How it was run: as §1

B1: PX14367A-bth-493-35-493 (Bacteroides thetaiotaomicron) (protein)
chain: VSSDQVAVAGNAERLFNGAWYNLFEYGTTYANIGYRALQCQDDMMASDVVSRPKYGFNSSYQFNDVAIPSDGRTSFAWYLIYKTIDNCNTAISIKGDSEELRQAQGQALALRAFCYLHLVQHYQFTYLKDKDAPCVPIYTEPTTSGTKPKGKSTVAQVYQQIFDDLNLAQDYLTNYVRKGDGQKFKPNTDVVNGLMARAYLLTGQWGEAAKAAEAARKGYSLMTTTAEYEGFNNISNKEWIWGSPQTLSQSDASYNFYYLDATYVGAYSSFMADPHLMDTFVKGDIRLPLFQWMREGYLGYKKFHMRSDDTADLVLMRSAEMYLIEAEAKVRDGVALDQAVAPLNTLRTARGVGNYDVTGKTKEQVIDEILMERRRELWGEGFGITDVLRNQKAVERMALSEDMQKTEVDCWQEGGSFAKRNPLGHWFLNFPDGKAFSANSSYYLYAIPEKEINANPNL
glycan array binding signal (z-score) (Neu5Ac(a2-3)GalNAc): -0.054 | glycan array binding signal (z-score) [1]: -0.062 | glycan array binding signal (z-score) [2]: -0.325 | glycan array binding signal (z-score) [3]: -0.396 | glycan array binding signal (z-score) [4]: -0.469 | glycan array binding signal (z-score) [5]: -0.098 | glycan array binding signal (z-score) (Neu5Ac(a2-6)Gal): -0.437 | glycan array binding signal (z-score) [6]: -0.367 | glycan array binding signal (z-score) (Neu5Ac(a2-6)Gal(b1-4)Glc): -0.325 | glycan array binding signal (z-score) [7]: -0.067 | glycan array binding signal (z-score) [8]: -0.44 | glycan array binding signal (z-score) [9]: -0.021 | glycan array binding signal (z-score) [10]: -0.047 | glycan array binding signal (z-score) [11]: -0.512 | glycan array binding signal (z-score) [12]: -0.352 | glycan array binding signal (z-score) [13]: 0.504 | glycan array binding signal (z-score) [14]: 0.54 | glycan array binding signal (z-score) [15]: -0.142 | glycan array binding signal (z-score) [16]: 0.022 | glycan array binding signal (z-score) [17]: -0.566 | glycan array binding signal (z-score) [18]: -0.724 | glycan array binding signal (z-score) [19]: -0.282 | glycan array binding signal (z-score) [20]: -0.192 | glycan array binding signal (z-score) [21]: 0.243 | glycan array binding signal (z-score) [22]: -0.361 | glycan array binding signal (z-score) [23]: -0.162 | glycan array binding signal (z-score) [24]: 0.04 | glycan array binding signal (z-score) [25]: -0.002 | glycan array binding signal (z-score) [26]: 6.47 | glycan array binding signal (z-score) [27]: -0.061 | glycan array binding signal (z-score) [28]: 1.84 | glycan array binding signal (z-score) [29]: 0.206 | glycan array binding signal (z-score) [30]: -0.201 | glycan array binding signal (z-score) [31]: -0.406 | glycan array binding signal (z-score) [32]: 0.72 | glycan array binding signal (z-score) [33]: -0.109 | glycan array binding signal (z-score) [34]: -0.601
